Reference: the RNAGym collection of RNA variant scans (doi:10.7554/elife.90254)
The source gives no read counts; variants with many changes may rest on few reads.

B1: OR4K15 (parent)
chain: GUUAACGGUCAUAGGCCAUGGAAACUAGGAGCACCAUUUCGCUGCCAGUGAAGAAAUGAACAAAGAAAAUCUGGGCCAGGCAGGCAUCAAAAGAAAUAGUCUUGCGCUCAACCAGAAAGUCUGUAAUCAUUUUAAGGGUA

Variants of: B1
Assay: self-cleavage, relative activity (ratio to wild type); higher = more cleavage; in vitro, sequencing; the parent is a self-cleaving ribozyme

Variant	self-cleavage
A59U U97C A116U	0.04
A56G A110G U127C	0.06
A60U A67G A117G	1.81
A56G U70C A110U A114G U122C	0.03
A59G A62G A91U	1.5
A56U A59G G75A	0.31
A60G A92U A116U	0.11
A56G A67G A78G A89C	0.2
U57C A64G U108C U130C	0.02
A59G A91G U127C	0.75
A59G A66U A96U A135G	0.82
A59G U72C G138A	0.17
A56G A116G A129G	0.13
A59G A96G A111G U122G	0.01
A59G U108C A126U	0.04
U57C A82G A91G U100A U127C	0.04
U57A A62G U100C G136A	2.91
A60G A78G A86U U87A	0.26
A60G G80A A129G	0.05
A56G A66G U87C	1.75
U57C G73A A78U A90G A125G U131C	0
A60G A68G A69U	1.28
A60G A66U U97C U108C	0.02
U57C A86U U124A	1.27

Variant	self-cleavage
A56G A89G A111G	0.12
A56G U103C U130C	1.14
A59G A63G U102C	1.4
A60G A68U A92G A96G U102G U120C	0.03
U57C A62G A66U A69U A89G	0.51
A59U A78U U87A A116G	0.03
U57C A82G C101A A118G U122C	0.02
A56G U72C A95G U139G	0.36
U57C A118G U122C	1.47
A59G U100C A116G	1.84
A59U C109U A117G U132C	0.58
A56G A67G C109A	0.21
A59G A95G A117U U120A U131C U139C	1.81
A60G A68U A89C A116G	0.4
A56G U70C G75A C81U U102C U130C	0.02
U57A A68G U132C	0.97
A59G A118G U120C U131G	0.27
U57C A59G A60G A89G A91G	1.17
A59U A66G U102C	1.93
A59G U72C A91G A114G	1.06
A56G A68G U72A A94G	0.07
A56G A60G G75C	0.1
A60G A95G U127A	2.04
A59U A69U A111G	0.05

Variant	self-cleavage
A59G G74U A114C	0.06
A60G A86G U102C U122A A126G	0.38
A60G A116G U122C	0.39
A56G A129G A134G	1.18
A60U A92C A110G	0.16
A59G U102C A118G	0.72
U57C A96G U100C A114G	1.05
A59G G93U A129G	1.72
A56G A60G A116G A117G	0.15
A60G A78G U130C	0.21
A60G A64G A66G	1.02
A60G A69G U127C	0.58
A59C A67G U120C U122G	2.68
A56G U87C A117G A125C	1.45
A60G A92G U102C	1.04
A60G U70A U108A	0.04
U57A U132C G137A	1.15
A56U U57C A95G	2.22
A56G U72A A95G	0.37
A59G U87A A98G A129G	0.42
U57C A94G G106A A114U	0
A59G C88A U100C A111G	0.01
A59G A60G C61U	0.84
A60G C101A U122C	0.12

Variant	self-cleavage
A60G A69G U130C A135C	1.68
A60C G75A A129U	0.07
A59G A114G U139C	0.09
A60G A67G U122A	1.48
A60G A62U A82C U120C U130C A135G	0.05
A60C A78G A125U	0.31
A56G A60U U100A U103C	0.16
A59G C85U A114G	0.14
A60G A63G A110G	0.16
U57C G84U U97C A114G U120C	0.01
A59U A68G U87C A98G A110U	0.73
U57C A95G U103C U120C	0.41
A60G U87A A134G	1.51
A60G A64G A78G U102A	0.13
A59G A64G U70C A129G	1.05
U57C C76U A111G	0.02
A56G U57C A60G A67G A68G U130C	0.58
A60G A68G U130C	0.53
A59G A118G U131C	0.86
A59U A89C A116G	0.4
U57C A82G A126G U130C	0.06
A60G A91G U108C	0.02
A59U U72A A90G U122A	0.13
A60G A68G A134G	0.93

Variant	self-cleavage
A60G A69G A90G U100C A125G	0.88
A56G U70C A110U	0.34
A60G C121U U127C U132C	1.84
A60C A82G U87A A126G	0.31
A59G U102C A116G	0.98
A59G U70C U131G	0.37
A56G A91G A94G U130A	1.05
U57A U87A A118G U122C	0.58
A59C A90G A118G	0.57
A60G A62G U108A A110G	0.01
A60G A64G A90G U127C	0.18
U57C A90G U103C	0.26
A60G A111G A126C U132C	0.01
A60U A62G A89U	0.87
A60G A62G A92G	0.39
A59G A60C U70C A95G	0.91
A59G A86C A92G U103C	0.45
A59G A117G G119A	2.97
A59G U70C A82U A96U	0.26
A59G A60G A78U U122C	0.42
G58A A90G A95G A110G	0.1
A56G G75C U108C	0.02
A60G A89U A125G	0.51
A56G A82U C109U G115A	0.01

Variant	self-cleavage
A60G A116G A117G A129G	0.12
A60G G83U A95G U127C	0.09
U57C U70A A82G A92G	0.18
A59G A89G A118G	1.57
A59G A63U A82U A110C	0.07
A56G C76U U102A	0.05
A56G A67G A91U A94G U102C C109U	0.37
A59G A92G A125G	0.75
A56G A62G A96G	0.82
A56G A63U C76A U102C G106C U130C	0
U57C A89G U130C	0.86
A60U A67G G73A U122C	0.08
A60G A67G U100C A116U	0.64
U57C A69G A86G A129U	0.56
U57A A69G A110G A114G	0.06
A56G A64G A78G A95G	0.23
A60G A69G U87C A116G	0.14
A60G A63G U100C A114G	0.72
A59G U103A U130C	0.72
U57A U72C A82U	0.24
A60G A62G A90G U127C	0.12
A56G A60G A82G U139C	0.21
A59U C81U A110U	0.06
A56G A67G G119U	1.1

Variant	self-cleavage
A56G A114U A116G	0.01
A60G A96G U130C	0.98
A59G A68G A94U G115A U122C	0.04
A56G U72C U139C	0.35
U57A A86C A111G U122C	0
A56G A64G A90U	0.83
A60G A94G U103C A114G	0.54
A56G A96G U100C C107U	0.02
U57A A92G A111G	0.02
U57C U72C G75C	0.17
U57C A78G A94G	0.39
A60G A67U U131C	1.45
A60G A64G A114U	0.1
A59U U72C A117G	0.24
A60G A82G A91C U100C A114G	0.11
A59U A82U G115U	0.03
A56G A60G A63G U130C	0.91
A59G U120A U130C	1.38
A59G A86G G104A A125U	0.03
U57A A98G A117G	0.38
A60G A82U C85A U127C	0.1
A60G A69G U87C A96G	2.08
A56G A126G A129G	0.61
